In PubChem BioAssay AID1768 (National Center for Advancing Translational Sciences (NCATS), 2009):
Where “and” joins values, the source holds several entries; their conditions need not be identical. Equal entries are not always repeated. The campaign covered roughly 270,000 compounds. About 620 (0.23%) were called active. Inconclusive results, whose numbers are uncertain, are shown with a selection of clear calls. The call rests on the fitted dose curve; in most records, active means well fitted inhibition curve with a large enough effect in the polarisation, with a control signal flat (not every such curve was filed as active); inconclusive means small, poorly fitted or top-dose-only effect, or effect the other way, or a change in a side signal; inactive means no such curve, though single readings can be large or run the other way; the % refers to the polarisation. Potencies beside an inconclusive call are fits to weak or partial responses and may not hold up. “Side channel” marks fits to a control or component signal instead of the main read-out.

Each compound was assayed against Menin (Homo sapiens) (UniProt O00255) (assay: qHTS Assay for Inhibitors Targeting the Menin-MLL Interaction in MLL Related Leukemias: Competition With Texas Red Labeled MLL-derived Mutant Peptide). Conditions: fluorescence polarization; FP activity change, negative = inhibition: at 61.6 µM (top of the series).
Potency means the concentration at half of the fitted maximal effect; tags describe the fitted curve by direction and shape or compound fluorescence and quenching.
Wherever FP activity change, negative = inhibition is given: % of control where 0% means no effect.

Chain of UniProt O00255 (O00255 whole entry, looked up): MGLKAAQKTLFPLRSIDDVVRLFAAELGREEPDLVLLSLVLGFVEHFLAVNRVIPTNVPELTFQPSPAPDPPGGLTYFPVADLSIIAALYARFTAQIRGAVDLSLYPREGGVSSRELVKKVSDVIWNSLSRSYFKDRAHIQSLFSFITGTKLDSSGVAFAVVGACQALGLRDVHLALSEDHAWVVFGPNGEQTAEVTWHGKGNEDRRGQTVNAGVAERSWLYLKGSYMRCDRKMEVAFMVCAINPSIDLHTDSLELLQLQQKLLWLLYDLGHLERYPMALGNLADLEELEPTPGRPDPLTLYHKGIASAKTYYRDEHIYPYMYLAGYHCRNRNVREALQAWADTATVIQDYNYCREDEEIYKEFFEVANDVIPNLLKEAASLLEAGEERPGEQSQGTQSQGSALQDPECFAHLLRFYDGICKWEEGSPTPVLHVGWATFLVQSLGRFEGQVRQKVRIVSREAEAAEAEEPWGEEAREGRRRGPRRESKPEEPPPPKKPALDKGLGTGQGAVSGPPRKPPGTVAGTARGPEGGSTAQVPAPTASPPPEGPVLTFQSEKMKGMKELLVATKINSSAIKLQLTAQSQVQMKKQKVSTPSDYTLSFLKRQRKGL

Potency, inactive:
CCN=C1SC(CC(=O)NC(N)=O)C(=O)N1CC (centres undefined)
COC(=O)N/N=C\c1c(C)[nH]n(-c2ccccc2)c1=O
CCCCCn1c(=O)c(Cc2ccccc2)c(O)c2ccccc21
CC(C)N1CC=C2C(C#N)=C(N)C(C#N)(C#N)C(c3ccccc3)C2C1 (centres undefined)
Nc1c(C(=O)NCc2ccccc2)sc2nc(N3CCOCC3)c3c(c12)CCCC3
COc1ccc(-c2[nH]ncc2CNCc2cc(C)n(C)n2)c(F)c1
COc1cccc(CNS(=O)(=O)c2ccc(S(=O)(=O)NC3CC3)cc2)c1
COC(=O)CCC(NC(=O)c1cc(C)oc1C)C(=O)OC (centres undefined)
C#Cc1ccc2c(c1)C(=O)N(C)Cc1c(C(=O)OCCCOC(=O)c3ncn4c3CN(C)C(=O)c3cc(C#C)ccc3-4)ncn1-2
CCn1nnc(NC(=O)c2cccnc2)n1

Potency, inconclusive:
Cc1cc(O)cc(O)c1C=NCc1ccco1 14.1 µM [quencher, side channel, partial curve]
COc1ccc(N2CCN(C(=O)CC(NC(N)=O)c3cccc(Oc4ccccc4)c3)CC2)cc1 (centres undefined) 11.2 µM [inhibitor, partial curve]
COc1ccc(NC(=S)Nc2ccc(C)c(Cl)c2)cc1OC 22.4 µM [quencher, side channel, single point]
CSc1ccc(Cn2nnc(C(=O)NCc3ccccc3)c2N)cc1 39.8 µM [inhibitor, single point]
COc1ccc(CN(C(=O)c2ccco2)c2ccc(C)c(C)c2)cc1 15.8 µM [fluorescent, side channel, partial curve]
CCC(C)/C(C)=N/NC(=O)c1ccccc1OCCOc1ccccc1 (centres undefined) 5.01 µM [fluorescent, side channel, partial curve]
Cc1ccc(C(=O)NCc2ccc(N3CCN(C(=O)OC(C)(C)C)CC3)cc2)cc1 2.82 µM [inhibitor, full curve, poor fit]
Fc1ccc(-n2cc(CNCCc3cccnc3)c(-c3ccccc3Cl)n2)cc1 3.98 µM [fluorescent, side channel, single point]
O=C(Nc1ccc2oc(-c3ccccc3)nc2c1)c1ccc2c(c1)OCCO2 39.8 µM [quencher, side channel, single point]
C/C(N)=C(/C#N)C(=O)COC(=O)c1cc(-c2ccccc2)nc2ccc(Br)cc12 2.51 µM [quencher, side channel, full curve]
CNC(=S)N1N=C(c2ccc(OC)cc2)CC1c1ccc(Cl)cc1Cl (centres undefined) 39.8 µM [fluorescent, single point]
Cc1ccc(-n2c(COc3c(C)cccc3C)nnc2SCC(=O)Nc2nccs2)cc1 35.5 µM [fluorescent, side channel, partial curve]
O=C(Cn1cnc2cc([N+](=O)[O-])ccc2c1=O)NCc1ccc(Cl)cc1 20 µM [quencher, side channel, partial curve]
O=C(COC(=O)c1ccccc1OCc1ccc(Cl)cc1)NC1CC1 28.2 µM [fluorescent, side channel, single point]
Cc1ccc(C(=O)O)cc1NC(=S)NC(=O)C(c1ccccc1)c1ccccc1 0.708 µM [inhibitor, full curve]
COc1ccc(Cc2nnc(NC(=O)Nc3ccccc3F)s2)cc1 25.1 µM [fluorescent, side channel, single point]
CCOC(=O)N1CCN(C(=O)COC(=O)Cc2ccc(OC)cc2)CC1 31.6 µM [quencher, side channel, single point]
Cc1cc(C)cc(NC(=S)N=Nc2c(O)n(C)c3ccc(S(=O)(=O)N4CCOCC4)cc23)c1 8.91 µM [quencher, side channel, full curve]
CCOC(=O)c1sc(N/N=C/c2cccc(C)c2)nc1C 10 µM [quencher, side channel, partial curve]
CCCn1c2ccccc2c2cnn(CC(=O)NC(C)CC)c(=O)c21 (centres undefined) 22.4 µM [inhibitor, single point]
CC(C)C(=O)NC(c1cccs1)c1cc([N+](=O)[O-])c2cccnc2c1O (centres undefined) 20 µM [quencher, side channel, partial curve]
O=C1CCCc2ccccc2N1Cc1ccc(Cl)cc1 3.16 µM [inhibitor, full curve]
CCOC(=O)C1CCN(C(=O)c2ccc3c(SCC(=O)O)c4c(nc3c2)CCCC4)CC1 11.2 µM [fluorescent, side channel, partial curve]
O=C(Nc1ccccc1)c1ccccc1NS(=O)(=O)c1ccc(Cl)s1 12.6 µM [quencher, single point]
CCOc1ccc(N=C/C=C/c2ccccc2)c(O)c1 35.5 µM [quencher, side channel, single point]
COc1ccccc1/C(O)=C(\C#N)c1nc2ccccc2[nH]1 28.2 µM [fluorescent, side channel, single point]
O=C(NCCc1ccccc1)C1CC(=O)N(C2CCCCCC2)C1 (centres undefined) 17.8 µM [inhibitor, single point]
CCOC(=O)c1sc(-c2ccccc2)cc1N 28.2 µM [quencher, side channel, single point]
COc1ccc(NC(=O)CC2C(=O)N(C)C(=S)N2CCc2ccccc2F)cc1 (centres undefined) 10 µM [quencher, side channel, partial curve]
CCOc1[nH]n(-c2ccc(Cl)cc2)c(=O)c1C=Nc1ccc(O)cc1 11.2 µM [quencher, side channel, partial curve]
C/C(=N\Nc1ccccc1[N+](=O)[O-])c1ccccc1O 22.4 µM [quencher, side channel, single point]
COc1ccc(NC(=O)C2CC(c3ccccc3O)=NO2)cc1OC (centres undefined) 25.1 µM [inhibitor, single point]
O=C(Nc1ccc(N2CCCC2)cc1)c1ccc(Cl)cc1Cl 0.794 µM [quencher, side channel, full curve]
CC(=O)NC(c1ccc([N+](=O)[O-])cc1)c1c(O)ccc2ccccc12 (centres undefined) 11.2 µM [quencher, side channel, partial curve]
CCOC(=O)c1cc(-c2ccco2)nc2c1c(C)nn2-c1cccc(Cl)c1 12.6 µM [quencher, side channel, partial curve]
CC(C)N=c1scc(-c2ccco2)n1/N=C/c1ccc(O)c(O)c1 10 µM [quencher, side channel, partial curve]
CCCC(=O)Nc1ccc(C2C(=O)c3ccccc3C2=O)cc1 25.1 µM [quencher, side channel, single point]
O=C(NNc1ccc(C2CCCCC2)cc1)C(O)(c1ccccc1)c1cccs1 (centres undefined) 39.8 µM [inhibitor, single point]
CCOc1cc(/C=C2\CCn3c2nc2cc(Cl)ccc2c3=O)ccc1O 14.1 µM [quencher, side channel, partial curve, poor fit]
CCOC(=O)CCc1c(C)c2ccc(OC3CCCCC3=O)cc2oc1=O (centres undefined) 28.2 µM [fluorescent, side channel, partial curve]
CCn1c(SCc2nc(-c3ccc(Cl)cc3)no2)nnc1-c1ccco1 39.8 µM [fluorescent, side channel, single point]
COc1ccc(C2CC(=O)Oc3c(C(CCN4CCCCC4)c4ccc(N(C)C)cc4)c(OC)cc(OC)c32)cc1 (centres undefined) 2.51 µM [fluorescent, side channel, partial curve]
CCc1nnc(NC(=O)c2ccc(OC)cc2OC)s1 10 µM [inhibitor, partial curve]
Cc1cnc(NC(=O)c2ccc(-c3nc4ccccc4s3)o2)s1 28.2 µM [quencher, side channel, single point]
CCOC(=O)c1ccc(N(C(=O)c2cnccn2)C(C(=O)NC2CCCCC2)c2cn(C)nc2C)cc1 (centres undefined) 1.78 µM [inhibitor, partial curve]
COc1cc(C2Nc3ccc4ccccc4c3C3=C2C(=O)CC(C)(C)C3)ccc1OC(C)C(=O)O (centres undefined) 25.1 µM [quencher, partial curve]
CCOc1ccc(-c2[nH]ncc2Oc2ccccc2OC)c(O)c1 22.4 µM [quencher, side channel, partial curve]
Cc1c(O)cc2c(c1O)C(=O)CC(c1ccc(O)cc1)O2 (centres undefined) 25.1 µM [quencher, side channel, partial curve]

FP activity change, negative = inhibition, inactive:
CC(C)[C@@H](OCc1ccccc1)[C@H](C)/C=N\O[C@@H](C)c1cn([C@H](CO)Cc2ccccc2)nn1 1.61% [at 11.7 µM] and -19.2% [at 11.7 µM]
